The target of this assay is T1, F-actin (in PaExoY-F-actin complex) (Oryctolagus cuniculus, UniProt P68135).
T1 construct: gene ACTA1
Conditions: bound with Pi in actin nucleotide site; modelled from PDB 7AD9.

Regarding `Nc1ncnc2c1ncn2[C@@H]1O[C@H](COP(=O)(O)OP(=O)(O)O)[C@@H](O)[C@H]1O` [ADP-Pi], the “cryo-EM structure, 3.2 Å” value is “F-actin, ADP-Pi and Phalloidin were adapted from PDB 7AD9”.

(Values after article PMC8595890, “Mechanism of actin-dependent activation of nucleotidyl cyclase toxins from bacterial human pathogens” (Nature Communications, 2021).)
